Results published in PubChem BioAssay AID493208 (National Center for Advancing Translational Sciences (NCATS), 2011).
Among all 44,000 compounds or so, about 340 (0.77%) were called active. Another 5% or so got no clear call; they are omitted. Calls follow the shape of the dose curve; as a rule, active = well fitted inhibition curve with a large enough effect; inconclusive = small, poorly fitted or top-dose-only effect; inactive = flat fitted curve, though single readings scatter. The list shows a part of the results.

Experiment: Acumen qHTS Assay for Inhibitors of the mTORC1 Signaling Pathway in MEF (Tsc2-/-, p53-/-) Cells: Sytravon;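 also: plate controls were DMSO for no effect and rapamycin for full effect; nearly all actives have a fitted effect of over 50% in size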
Settings: phospho-rpS6 immunofluorescence/PI, 24 h; series mostly up to 38.3 µM; activity change, negative = inhibition: at the top concentration
How it was run: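 Read-out: phospho-S6 Alexa-488 intensity over PI intensity per well, scored as % active cells using thresholds from rapamycin (7.5 nM) and DMSO controls. Tsc2-/-, p53-/- MEFs exposed to compound for 24 h; PI cell count recorded as viability.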

Row | SMILES | activity change, negative = inhibition
1 | CC1CCN(S(=O)(=O)c2ccc3nc(-c4cccnc4)cc(C(=O)NCCCOC(C)C)c3c2)CC1 | inactive: -0.374%
2 | COc1ccc2[nH]cc(CCNC(=O)Nc3ccccc3C)c2c1 | inactive: -0.922%
3 | Cc1ccc(Cl)cc1NC(=O)c1oc2ccc(S(=O)(=O)N3CCC4(CC3)OCCO4)cc2c1C | inactive: 7.56%
4 | Cc1ccc2sc(N3CCN(C(=O)C4COc5ccccc5O4)CC3)nc2c1C (configuration not stated) | inactive: -2.06%
5 | Cc1cc(C)c(NC(=O)c2sc3nc(C)cc(C)c3c2N)c(C)c1 | inactive: -22.4%
6 | COc1ccc(C)cc1NC(=O)CN1CCN(CC(=O)Nc2ccccc2F)CC1 | inactive: 3.4%
7 | O=C1C2=C(Nc3ccccc3SC2c2c(F)cccc2Cl)c2ccccc21 (configuration not stated) | inactive: -8.09%
8 | COc1ccc(NC(=O)Nc2cn(CC(C)C)c(=O)c3ccccc23)c(OC)c1 | inactive: 0.0621%
9 | O=C(NCCc1ccc(F)cc1)C(=O)NCC(c1cccs1)S(=O)(=O)c1cccs1 (configuration not stated) | inactive: -10.8%
10 | COc1ccc(-c2cc(-c3ccccc3)nc3c2COc2ccc(Cl)cc2-3)cc1 | inactive: -2.51%
11 | Cc1oc2ncn(C)c(=O)c2c1C(=O)N(C)c1ccccc1F | inactive: 1.27%
12 | COc1ccc(NC(=O)CSC2=Nc3ccccc3C3=NC(CCC(=O)NCCc4ccccc4)C(=O)N23)cc1 (configuration not stated) | inactive: 0.628%
13 | CC(C)(C)OC(=O)N1CCC(c2c(C(=O)N3CCN(C4CCCCC4)CC3)cnn2-c2cccc(Cl)c2)CC1 | inactive: -13.2%
14 | COC(=O)c1ccc(NS(=O)(=O)c2ccc3[nH]c4c(c3c2)CCCCC4)cc1 | inactive: -5.15%
15 | CCOC(=O)N1CCC(NC(=O)c2cnn(-c3cccc(C)c3)c2-n2cccc2)CC1 | inactive: -7.68%
16 | CC(=O)N1CCCc2cc(S(=O)(=O)N3CCC(C(=O)NC4CCCCC4)CC3)ccc21 | inactive: -0.326%
17 | Cc1cccc(-n2cc(-c3ccccc3)nc2SCC(=O)Nc2ccccc2Cl)c1 | inactive: -2.91%
18 | Cc1ccc(C)c(NC(=O)C(C)N(c2ccccc2)S(C)(=O)=O)c1 (configuration not stated) | inactive: 2.62%
19 | Cc1oc2ncn(CC(C)C)c(=O)c2c1C(=O)Nc1ccc(Cl)cn1 | inactive: 4.76%
20 | Cc1ccc(C)c(S(=O)(=O)NCC(c2ccc(N(C)C)cc2)N2CCOCC2)c1 (configuration not stated) | inactive: 11.9%
21 | Cc1cccc(OCCn2nnc3sc4c(c3c2=O)CCCC4)c1 | inactive: 4.55%
22 | CC(C)c1ccc(NS(=O)(=O)c2ccc3[nH]cc(C(=O)NC4CCCCC4)c(=O)c3c2)cc1 | inactive: -0.19%
23 | CCOc1ccc(CNCCNC(=O)c2nonc2N)cc1 | inactive: 5.51%
24 | COc1ccc(-n2c(-c3ccc(Cl)cc3)cc3c2CC(C)(C)CC3=O)c(OC)c1 | inactive: -17.4%
25 | CCOC(=O)c1sc(NC(=O)c2nc(SC)ncc2Cl)c(C(=O)OCC)c1C | inactive: 5.18%
26 | Cc1cccc(C)c1NC(=O)c1ccc2nc(CCc3ccccc3)oc2c1 | inactive: 5.22%
27 | Cc1cccc(NC(=O)c2sc3cccc(Cl)c3c2Cl)c1 | inactive: 11.7%
